About 1,200 (2.5%) of roughly 48,000 compounds were called active. Inconclusive results (about 2%) are left out.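 How the source made its calls: active means activation of at least 60% and not above a set upper limit (about 1 call in 100 departs from these limits); inconclusive means activation of 40% to 60%, or above that upper limit; inactive means activation under 40%.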 The list shows a part of the results. A structure can be active in one record and inactive in another.
Each compound was assayed against Probable G-protein coupled receptor 32 (Homo sapiens) (UniProt O75388) (assay: qHTS for Agonists of Human Resolvin D1 Receptor DRV1). Conditions: CHO-K1 GPR32 beta-arrestin PathHunter luminescence, 90 min; at 76.9 µM; active compounds read high; zero percent set by DMSO-only wells.
How it was run: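 Readings come from a cell-based beta-arrestin complementation format: CHO-K1 GPR32 stable cells (2,500/well) treated 90 min with compounds, then beta-Gal substrate added for 1 h before chemiluminescence imaging.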
Further: 0% is about no effect.

Chain of UniProt O75388 (O75388 whole entry, looked up): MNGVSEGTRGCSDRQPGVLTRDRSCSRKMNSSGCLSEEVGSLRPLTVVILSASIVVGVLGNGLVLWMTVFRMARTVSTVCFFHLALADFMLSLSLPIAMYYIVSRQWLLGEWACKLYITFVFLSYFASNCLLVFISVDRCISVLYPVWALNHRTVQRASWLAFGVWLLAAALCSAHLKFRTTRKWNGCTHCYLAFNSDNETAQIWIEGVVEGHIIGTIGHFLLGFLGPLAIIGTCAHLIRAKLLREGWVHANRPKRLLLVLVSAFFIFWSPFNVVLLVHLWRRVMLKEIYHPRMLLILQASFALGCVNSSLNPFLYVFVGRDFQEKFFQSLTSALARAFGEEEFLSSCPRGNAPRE

Row | Structure (SMILES) | activation
1 | CC(CN1c2ccccc2Sc2ccccc21)N(C)C (stereo not given) | inactive: 3.93%
2 | COc1cc(-c2nnc(SCCOc3cc(C)cc(C)c3)o2)cc(OC)c1OC | inactive: 8.01%
3 | Cc1cccc(Cn2cccc2CNS(=O)(=O)c2ccc(Br)cc2)c1 | inactive: 37.1%
4 | COc1ccc(-c2cc3ccc(O)c(CN4CCC(C)CC4)c3oc2=O)cc1OC | inactive: -22.6%
5 | COc1ccc(S(=O)(=O)Nc2cc(S(=O)(=O)c3ccccc3)c(O)c(C)c2C)cc1 | inactive: 2.58%
6 | Cc1ccc(C(C)C)c(OC(C)C(=O)NCC2(N(C)C)CCCCC2)c1 (stereo not given) | inactive: 5.18%
7 | Cc1ccccc1CN1C(=O)c2ccccc2S(=O)(=O)c2ccc(C(=O)OCC3CCCO3)cc21 (stereo not given) | inactive: -8.6%
8 | CC(NC(=O)CN1C(=O)c2cccnc2Oc2ccc(Cl)cc21)c1ccccc1 (stereo not given) | inactive: -22.1%
9 | Cc1cc(OC(C)C(=O)Nc2sc3c(c2C(N)=O)CCCC3)ccc1Cl (stereo not given) | inactive: 47.8%
10 | CCOc1ccccc1CNc1nc2nc(C)cc(C)n2n1 | inactive: 7.74%
11 | Cc1ccc(Cn2c(C(C)NC(=O)c3ccccc3)nc3ccccc32)cc1 (stereo not given) | inactive: -14.9%
12 | O=C(NCCCN1CCN(c2ccccc2)CC1)c1ccc2nc(Cc3ccccc3)oc2c1 | inactive: -21.1%
13 | Cc1noc(C)c1S(=O)(=O)N1CCC(C(=O)N2CCN(c3cccc(C(F)(F)F)c3)CC2)CC1 | inactive: 15.6%
14 | CC(C)NC(=O)CCC(=O)N1Cc2ccccc2Oc2ncccc21 | inactive: -10.1%
15 | CCOC(=O)c1c(C)[nH]c(CCC(=O)Nc2ccc(OC)c(OC)c2)c1C | inactive: 6.68%
16 | CCC1CCCCN1C(=O)CSc1nc2c([nH]c3ccccc32)c(=O)n1-c1ccc(OC)cc1 (stereo not given) | inactive: -11%
17 | Cn1ccc2cc(S(=O)(=O)N3CCN(C(=O)Nc4ccc(F)cc4F)CC3)ccc21 | inactive: -4.04%
18 | Cc1ccc(-n2nc3c(=O)n(C(C)C(=O)NCc4ccco4)nc(C)c3c2C)cc1 (stereo not given) | inactive: -10.3%
19 | Cc1ccc(Cl)cc1N1CCN(CCCNC(=O)c2ccc3nc(N4CCCCC4)sc3c2)CC1 | inactive: -7.97%
20 | NS(=O)(=O)c1cc2c(cc1C(F)(F)F)NC(Cc1ccccc1)NS2(=O)=O (stereo not given) | inactive: -1.38%
21 | CCn1ccc2c(OCC(=O)Nc3ccccc3C(F)(F)F)cccc2c1=O | active: 84.9%
22 | Oc1c(C(c2ccccc2)N2CCC(O)CC2)sc2nc(-c3ccco3)nn12 (stereo not given) | inactive: -12.2%
23 | COC(=O)CC1Oc2ccc(Cl)cc2-n2cc(-c3ccccc3)nc21 (stereo not given) | inactive: 15.3%
24 | CCOc1ccc(CCNC(=O)c2cnc3sc(N4CCCC4)nn3c2=O)cc1 | inactive: 10.2%
25 | CCCCOc1cccc(C(=O)N(Cc2ccc(C)o2)c2ccccn2)c1 | inactive: 25.7%
26 | COc1ccc(NS(=O)(=O)c2ccc3[nH]c4c(c3c2)CCCC4)cc1OC | inactive: 13.7%
27 | CCn1c(CN2CCCCC2)nc2cc(NC(=O)c3cc(OC)c(OC)c(OC)c3)ccc21 | inactive: -8.85%
28 | CC(=O)Nc1ccc(NC(=O)c2ccc3c(c2)N(Cc2cccc(Cl)c2)C(=O)c2ccccc2S3(=O)=O)cc1 | inactive: -22.4%

Row | Structure (SMILES) | activation
29 | CCOC(=O)C(C)Sc1ccc2nnc(CCNS(=O)(=O)c3ccccc3)n2n1 (stereo not given) | inactive: -7.68%
30 | Cc1ccc(C)c(NC(=O)c2ccc(CN3CC(=O)N4CCCCC4C3=O)cc2)c1 (stereo not given) | inactive: -11.2%
31 | COc1ccc(Nc2c3c(nc4ccc(NC(=O)c5ccc(F)cc5)cc24)CCCC3)cc1OC | inactive: -34%
32 | CC1N=C2c3ccccc3N=C(SCC(=O)NCCc3ccccc3)N2C1=O (stereo not given) | inactive: -10.7%
33 | CN(Cc1ccccc1)C(=O)c1nc(-c2ccc(Cl)cc2)n2c1CCCCC2 | inactive: 6.71%
34 | O=C(c1cccn1-c1nnc(N2CCCC2)s1)N1CCN(c2ccc(Cl)cc2)CC1 | inactive: 14.8%
35 | Cn1c(=O)[nH]c2cc(-c3noc(-c4ccc(C#N)cc4)n3)ccc21 | inactive: 4.01%
36 | Cc1cc(C)n(-c2nnc(Nc3ccc(C)c(Cl)c3)c3ccccc23)n1 | inactive: -3%
37 | CCCS(=O)(=O)NCCc1sc2nc(-c3ccc(F)cc3)nn2c1C | inactive: -9.71%
38 | Cc1ccc2c(c1)C(c1ccccc1)N(C(=O)Cc1ccc(F)cc1)CC(=O)N2 (stereo not given) | inactive: -20.8%
39 | CN(C)C(=O)c1c(NC(=O)c2ccccc2F)sc2c1CCCC2 | inactive: -1.98%
40 | CC(=O)Nc1ccc(S(=O)(=O)NCC2CCC(C(=O)NCCN(CC(C)C)CC(C)C)CC2)cc1 (stereo not given) | inactive: -3.84%
41 | COc1ccc(Cn2c(C(=O)O)c(CNCCc3cc(OC)ccc3OC)c3ccc(C)cc32)cc1 | active: 106%
42 | COc1ccc(C2=NC(C)(C)N(CC(=O)Nc3cccc(C)c3)C2=O)cc1 | inactive: -5.9%
43 | CC1=C(C(=O)Nc2ccc(Cl)cc2)C(CC(C)C)n2nc(SCc3ccccc3C)nc2N1 (stereo not given) | inactive: -0.172%
44 | Nc1nc2ccc([N+](=O)[O-])cc2s1 | inactive: -24.1%
45 | O=C(COc1ccc2ccccc2c1)NC1CC(=O)N(c2cccc(F)c2)C1 (stereo not given) | inactive: 0.267%
46 | COc1cc(C2C(=O)N(C3CCCCCC3)CC(=O)N2CCc2ccccc2)ccc1OC(C)C (stereo not given) | inactive: -7.83%
47 | Cc1ccc(C)c(-n2c(N)c(C#N)c3nc4ccccc4nc32)c1 | inactive: 7.9%
48 | COc1ccccc1CNS(=O)(=O)c1cnc(N)nc1 | inactive: -3.8%
49 | CCCCCCCC(=O)[O-].CCCCCCCC(=O)[O-].[Zn+2] | inactive: 35.3%
50 | Cc1nc2ccn(Cc3ccco3)c(=O)c2cc1C(=O)NCc1ccccc1 | inactive: -15%
51 | COc1cccc(CNc2cc(C)nc3nc(-c4ccc(C)cc4)nn23)c1 | inactive: 21.1%
52 | O=C(NCC(c1ccco1)S(=O)(=O)c1cccs1)c1ccccc1F (stereo not given) | inactive: -2.9%
53 | CCCc1cc(=O)[nH]c2nnc(SCC)n12 | inactive: 30.9%
54 | O=c1oc2ccc3ccccc3c2cc1-c1nnc(Nc2ccc(F)cc2)s1 | inactive: 2.26%
55 | Cc1ccc(N2CC(C)Cn3c2nc2c3c(=O)n(Cc3cccc(Cl)c3)c(=O)n2C)cc1 (stereo not given) | inactive: -0.63%

From PubChem BioAssay AID1346428 (National Center for Advancing Translational Sciences (NCATS), 2018)
